# The whole screen tested about 350,000 compounds, of which about 9,900 (2.8%) were called active. The inconclusive results got no clear call from the source; some entries with a clear call stand among them for comparison. Calls come from the whole dose curve; as a rule, active = well fitted activation curve with a large enough effect; inconclusive = small, poorly fitted or top-dose-only effect; inactive = no such curve, though single readings can be large or run the other way. Potencies of inconclusive entries are left out as doubtful fits.
# Experiment: A quantitative high throughput screen for small molecules that induce DNA re-replication in MCF 10a normal breast cells. Note: nearly all actives have a fitted effect of over 50% in size.
# Settings: MCF 10A DNA re-replication, Hoechst nuclear intensity, 48 h; series mostly up to 46.1 µM
# Potency is the fitted concentration of half-maximal effect; tags give direction and shape of the fitted curve.
row,Structure (SMILES),Potency
1,O=C(NC1CC1)c1c[nH]c2ccc(S(=O)(=O)Nc3cccc(C(F)(F)F)c3)cc2c1=O,"inconclusive [activator, partial curve, poor fit]"
2,COc1cc2c3nnc(-c4ccc(F)cc4)c-3cn(Cc3ccccc3F)c2cc1OC,active: 9.2 µM
3,C=CCN(c1ccc(C(=O)Nc2ccc3c(c2)OCO3)cc1)S(C)(=O)=O,inactive
4,CC1CCCCN1CCCOC(=O)c1ccccc1 (stereo not given),"inconclusive [activator, partial curve, poor fit]"
5,Cc1ccc(C23CC4CC(CC(CC(=O)N5CCOCC5)(C4)C2)C3)cc1,"inconclusive [activator, single point]"
6,CCCn1c(=O)c(C(=O)Nc2ccccc2C(=O)OCC)c(O)c2ccccc21,active: 11.2 µM
7,Cc1cccc(-n2c(SCC(N)=O)nc3c(c2=O)C2(CCCCC2)Cc2ccccc2-3)c1,"inconclusive [activator, single point]"
8,Nc1ccc(C(=O)OCc2nc3c(ccc4ccccc43)[nH]2)cc1,"inconclusive [activator, partial curve, poor fit]"
9,COc1ccc(/C(C)=N/OCC(=O)N=Nc2c(O)[nH]c3ccccc23)cc1,"inconclusive [activator, single point]"
10,NC(=O)COC(=O)c1sc2ccccc2c1Cl,inactive
11,OC(CNCc1ccccc1Cl)COc1ccc(F)cc1 (stereo not given),inactive
12,COc1cc(OC)c(-c2sc(Nc3ccccc3)n[n+]2-c2ccc(F)cc2)cc1OC,inactive
13,COc1cc(NC(=S)NCC2CCCO2)c(OC)cc1Cl (stereo not given),inactive
14,COn1c(-c2ccccc2)c(C=O)c2ccccc21,"inconclusive [activator, partial curve, poor fit]"
15,Cc1noc(-c2ccc(Cl)cc2)c1C(=O)O/N=C(\N)c1ccc(C(C)(C)C)cc1,"inconclusive [activator, single point]"
16,O=C(NCC1OCCc2ccccc21)c1ccc(NC(=O)c2ccc(Cl)cc2)cc1 (stereo not given),"inconclusive [activator, single point]"
17,Cc1cc(Cl)ccc1OCC(=O)N/N=C1\CCCc2ccccc21,"inconclusive [activator, full curve]"
18,O=C(O)CCNS(=O)(=O)c1ccccc1,"inconclusive [activator, single point]"
19,Cc1ccc(S(=O)(=O)Nc2cccc(C(=O)NC3CCN(Cc4ccccc4)CC3)c2)cc1F,"inconclusive [activator, single point]"
20,O=C(CCC(=O)Nc1ccc(Br)cc1)N/N=C/c1ccccc1F,inactive
21,CCOC(=O)Nc1ccc2c(COC(=O)CNS(=O)(=O)c3ccc(NC(C)=O)cc3)cc(=O)oc2c1,"inconclusive [activator, partial curve, poor fit]"
22,CCOc1ccc(-c2nnc3n2N=C(c2ccc(OC)cc2)CS3)cc1,inactive
23,COc1cccc(Oc2c(C)oc3c(CN4CCCC4)c(O)ccc3c2=O)c1,inactive
24,Cc1ccc(C)c(N2CCN(C(=O)CCc3nc(-c4ccccc4C)no3)CC2)c1,"inconclusive [activator, single point]"

row,Structure (SMILES),Potency
1,C[C@H](CO)N1C[C@H](C)[C@@H](CN(C)C(=O)Nc2ccccc2)Oc2c(NS(=O)(=O)c3cn(C)cn3)cccc2C1=O,"inconclusive [activator, full curve, poor fit]"
2,CCOc1ccc(NC(=O)CN(C)C(=O)CC(NC(=O)c2ccccc2)c2ccccc2)cc1OCC (stereo not given),inactive
3,COc1ccc(Cl)cc1NC(=O)C1CCN(C(=O)Nc2ccccc2)CC1,inactive
4,CCNC(=O)N1CCC(c2nc3ccccc3s2)CC1,"inconclusive [activator, full curve, poor fit]"
5,CCc1ccc(NC(=O)[C@H](Cc2c[nH]c3ccccc23)NC(=O)[C@@H]2Cc3ccccc3CN2)cc1,active: 18.4 µM
6,O=C(NCC(=O)N1CCCC(C(F)(F)F)C1)c1ccc(Oc2ccccc2)cc1 (stereo not given),inactive
7,Cc1cc(C(=O)c2ccc(C(C)(C)C)cc2)c(NC(=O)CCl)s1,"inconclusive [activator, partial curve]"
8,COc1cccc(CN2CCN(C(c3ccccc3)c3ccccc3)CC2)c1O,"inconclusive [activator, single point]"
9,Cc1cc(C)c(S(=O)(=O)c2ccccc2)c(OC(=O)c2c(Cl)cc(Cl)cc2Cl)n1,"inconclusive [activator, single point]"
10,COc1ccc(NS(=O)(=O)c2cc(NC(=O)c3cccs3)ccc2N2CCOCC2)cc1,"inconclusive [activator, partial curve, poor fit]"
11,Cc1ccc(-n2ncc3c(=O)n(CC(=O)N4CCCc5ccccc54)cnc32)cc1C,"inconclusive [activator, single point]"
12,CC(C)CN(C)C(=O)CC1C(=O)NCCN1C (stereo not given),"inconclusive [activator, single point]"
13,CCCCN(C)C(=O)Cn1nc(Cc2ccncc2)c2ccccc2c1=O,"inconclusive [activator, partial curve, poor fit]"
14,O=C1/C(=C\c2cccnc2)SC(=S)N1C1CCS(=O)(=O)C1 (stereo not given),active: 14.6 µM
15,Cc1c(C(=O)NCc2cccnc2)oc2ccc(S(=O)(=O)N3CCC4(CC3)OCCO4)cc12,inactive
16,COc1ccc(-c2cc3ccccc3oc2=O)cc1NC(=O)c1ccc([N+](=O)[O-])o1,active: 7.31 µM
17,Cc1ccc2c(c1)N(C(=O)CCC(=O)NCc1ccccc1)CC(C)O2 (stereo not given),inactive
18,COc1ccc(/C=C(\C#N)C(=O)OCC(=O)Nc2c(C)cccc2C)cc1,"inconclusive [activator, single point]"
19,CC(C)COC(=O)/C(C#N)=C/c1cn(Cc2ccccc2)c2ccccc12,"inconclusive [activator, single point]"
20,CCC(C)[C@H](NC(=O)N1CCCCC1)C(=O)OC (stereo not given in full),"inconclusive [activator, full curve, poor fit]"
21,COc1cc(SC)ccc1C(=O)NNC(=O)C1COc2ccccc2O1 (stereo not given),inactive
22,COc1ccccc1CNc1nc(=S)[nH]c2cc(OC)c(OC)cc12,inactive
23,CCc1ccccc1NC(=O)CNC(=O)CCNC(=O)Nc1ccccc1,inactive
24,CCOC(=O)Oc1c(OC)cc(C(=O)O[C@H]2C[C@H]3CN4CCc5c([nH]c6cc(OC)ccc56)[C@@H]4C[C@H]3[C@@H](C(=O)OC)[C@@H]2OC)cc1OC,inactive

row,Structure (SMILES),Potency
1,CCOC(=O)[C@H]1[C@H]2COc3ccc(Cl)cc3[C@@H]2N2C(=O)CN(C)C(=O)[C@@]12C,inactive
2,Cn1c(=O)c2c(SCC(=O)N3CCOCC3)nc(-c3ccccc3F)nc2n(C)c1=O,inactive
3,Cc1ccc(NC(=O)CSc2nnc(C3COc4ccccc4O3)o2)c(Cl)c1 (stereo not given),inactive
4,COc1ccc2cc(C(=O)C3CCCN(C(=O)c4cncs4)C3)ccc2c1 (stereo not given),inactive
5,C=CCn1cnc2c(c1=O)c1nc3ccccc3nc1n2/N=C/c1cccc(OC)c1OC,inactive
6,O=C(Nc1ccc(S(=O)(=O)Nc2nccs2)cc1)c1c(F)c(F)c(F)c(F)c1F,"inconclusive [activator, single point]"
7,Cc1ccc(N=C2C(=O)Nc3ccc(Br)cc32)cc1,"inconclusive [activator, single point]"
8,O=C(NCc1ccco1)c1cccc(NC(=O)c2ccccc2)c1,"inconclusive [activator, partial curve]"
9,Cc1ccc2cc(CN(Cc3ccc(F)cc3)Cc3nnnn3C3CCCC3)c(=O)[nH]c2c1,inactive
10,O=C(CN1CCOCC1)N1CCOCC1,inactive
11,COc1ccc2[nH]c(=O)c(CN(CC3CCCO3)C(=O)Nc3ccccc3OC)cc2c1 (stereo not given),"inconclusive [activator, single point]"
12,Cc1ccc(SC[C@H](CC(C)C)N2CCN(CCc3ccccc3)CCC2=O)cc1,"inconclusive [activator, partial curve, poor fit]"
13,Cc1cccn2c(=O)c3cc(C(=O)NC4CCCCC4C)n(C)c3nc12 (stereo not given),active: 14.6 µM
14,CCN1C(=O)[C@H]2[C@@H](c3ccc(C)cc3)N3C(=O)N(c4ccc(C)cc4)C(=O)[C@@]3(CC)[C@H]2C1=O,"inconclusive [activator, single point]"
15,C/C(=N\NC(=O)c1ccc(F)cc1)c1ccc(NC(=O)Cc2ccccc2)cc1,"inconclusive [activator, full curve, poor fit]"
16,O=C(NCCCNC(=O)c1ccc(-c2cc(Cl)ccc2Cl)o1)c1cnccn1,inactive
17,Cc1nc(-c2ccc(O)c(O)c2)cs1,"inconclusive [activator, single point]"
18,COCCN1CCC(CNCc2cn(-c3cc(C)ccc3C)nc2-c2ccccc2)C1 (stereo not given),"inconclusive [activator, single point]"
19,Cc1ccc2[nH]c(=O)c(CN(Cc3cccs3)Cc3nnnn3Cc3ccccc3)cc2c1,"inconclusive [activator, single point]"
20,O=c1[nH]c2ccccc2n1C1=CCCC1,inactive
21,O=C(N/N=C/c1ccc(F)cc1)c1c(O)c2ccccc2[nH]c1=O,"inconclusive [activator, full curve, poor fit]"
22,COc1ccc(/C=C(/C(=O)c2cccs2)N2C=CC=CC2=C(C#N)C#N)cc1,"inconclusive [activator, partial curve, poor fit]"
